For 68 variants, self-cleavage results are on record in the RNAGym collection of RNA variant scans (doi:10.1093/nar/gkz1192).

Read counts are not given, so values of variants with three or more changes are uncertain.

B1: CPEB3 Ribozyme (parent)
chain: UAACAGGGGGCCACAGCAGAAGCGUUCACGUCGCAGCCCCUGUCAGAUUCUGGUGAAUCUGCGAAUUCUGCUGUAUAUCUC

The data set covers variants of B1. The data set can be described thus: self-cleavage, relative activity (ratio to wild type); higher = more cleavage; in vitro, sequencing. The method in brief:
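After error-prone PCR and barcoding, CPEB3 ribozyme mutant libraries were transcribed with T7 RNA polymerase at 37°C for 5 hours, then given 15 min with DNase I before an EDTA stop, and they cleaved during both steps. Reverse transcription with template switching preceded Illumina sequencing. Relative activity divides a variant's cleaved/total read fraction by the unmutated ribozyme's. At least 5 reads were required per variant, and three batches were averaged.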
For the variant UAACAGGGGGCCACAGCAGUAGCGUUCACGUCGCUGCCCCUGUCAGAUUCUGGUGAAUCCGCGAACUCUGCUGUAUAUCUC, the self-cleavage turned out to be 0.15. In the case of UAACAGGGGGCCACAGCAGUAGCGUUCACGUCGCAGCCCCUAUCAGAUUCUGGUGAAUCUGCGAAUUCUGGUGUAUAUCUC it was 0.06; in that of UAACAGGGGGCCACAGCAGUAGCGUUCACGUCGCGGCCCCCGCCAGAUUCUGGUGAAUCUGCGAAUUCUGCUGUAUAUCUC, 0.21. With UAACAGGGGGCCACAGCAGUACCGUUCACGUCGCAGCCCAUGUCAGAUUCUGGUGAAUCUGCUAAUUCUGCUGCAUAUCUC the figure was 0.32.

With UAACAGGGGGCCACAGCAGUAGCGUUCACGUCGCAGCCCCUGUCAGAUUCUAGUGAAUCCGCGAAUUCUGCUGUAUACCUC, the self-cleavage worked out at 0.33. In the case of UAACAGGGGGCCACAGCAGUAGCGUUCACGUCGAAGCCCCUGUCAGAUUCUGGUGAAUCUGCGAAUUCUGCUGUAUACUCC it was 0.17; in that of UAACAGGGGGCCACAGCAGUAGCGUUCUCGUCGCAGCCCCUGUCAGAUCCUGGAGAGUCUGCGAAUUCUGCUGUAUAUCUC, 0.22. In the case of UAACAGGGGGCCACAGCAGUUGCGUUCACGUCGCAGCCCCUGUCAGAUUCUGGUGAAUCUGCGAAUUCUGCUGUGUAUCUC, the self-cleavage turned out to be 0.53. As for UAACAGGGGGCCACAGCAGUAGCAUUCACGUCGCAGCCCCUGUCAGAUUCUGGUGAGUCUGCGAAUUCUGCUGUAUAUCUC, the self-cleavage is 0.11. For UAACAGGGGGCCACAGCAGGAGCGUUCACGUCGCAGCCCCUGUCAGAUUCUGGUGAAUCUGCGAAUCCUGCUGUAUACCCC, the self-cleavage amounted to 0.84. With UAACAGGGGGCCACAGCAGUAGCGAUCACGUCGCCGCCCCUGUCAGAUUCUGGUGAAUCUGCGAAUUCUGCUGUAUAUCUC the figure was 0.35.

UAACAGGGGGCCACAGCAGUAGCGUUCACGUCACAGCCCCUGUCAGAUUCUGGUGAAUCAGCGAAUUCUGCUGUAUAUCUC: the self-cleavage came out at 0.14. UAACAGGGGGCCACAGCAGUAGCGUUCACGUCGCAGCCCCUGUCGGAUUCUGGUGAAUCUGCGAAUUCUGCUGCAUAUCAC: the self-cleavage stood at 0.18. In the case of UAACAGGGGGCCACAGCAGUAGCGUUCCCGUCGCAGCCCCUGUCAGAUUCAGGUGAAUCUGCGAAUUCUGCUGUAUAUCUC it was 0.24.

For UAACAGGGGGCCACAGCAGUAGCGUUCACGUCGCAGCCCCUGUCUGAUUCUGGGGAAUCUGCGAAUUCUGCUGUAUAUCUC, the self-cleavage was found to be 0.19. In the case of UAACAGGGGGCCACAGCAGUAGCGUUCACGUCGCGGCCCCUGUCAGAUUCUGGUGAAUCUGUGAAUUCUGCUGUAUAUCUC it was 0.2. Take UAACAGGGGGCCACAGCAGUAGCGUUCACGUCGCAGCCCCUGUCAGUUUCUGGUGACUCUGCGGAUUCCGCCGUAUAUCUC: the self-cleavage stood at 0.2. In the case of UAACAGGGGGCCACAGCAGUAGCGUUCACGUCCCAGCCCCUGUCAGAUCCUGGUGAAUCUGCGAACUCUGCUGUAUAUCUC it was 0.05.

With UAACAGGGGGCCACAGCAGUAGCGUUCCCGUCGCAGCCCCUGUCAGAUUCUGGUGGAUCUGCGAAUUCUGCUGUAUAUCUC, the self-cleavage worked out at 0.09.

Take UAACAGGGGGCCACAGCAGUAGCGUUCACGUCGCGGCCCCUGUCUGAUCCUGGUGAAUCCGCGGAUUCUCCUGUAUAUCUC: the self-cleavage was found to be 0.04.

Take UAACAGGGGGCCACAGCAGUAGCGUUCACGUCGCGGCCCCUGUCAGAUACUGGUGAAUCUGCGAACUCUGCUGUAUAUCUC: the self-cleavage was found to be 0.43. With UAACAGGGGGCCACAGCAGUAGCGUUCACGUAGCAGCCCCCGUCAGAUACUGGUGAAUCUGCGAAUUCUGCUGUAUAUCUC the figure was 0.17. With UAACAGGGGGCCACAGCAGUAGCGUUCACGUCGCAGCCCAUGUCAGAUUCUGGUGAAUCAGCGUAUUCUGCUGUAUAUCUC the figure was 0.13. In the case of UAACAGGGGGCCACAGCAGUAGCGUUCGCAUCGCAGCCCCUGUCAGAUUCUGGUGAAUCUGCGAAUUCUGCUGUAUAUCUC it was 0.22.

With UAACAGGGGGCCACAGCAGUAGCGUUCACGUCACAGCCCCUGUCAGAUUCUGGUGAAUCUGCGAAUUCCGCUGUAUAUCUC, the self-cleavage was 0.31. With UAACAGGGGGCCACAGCAGGAGCGUUCACGUCGCAGCCCCUGUCAGAUUCUGGUGAAUCCGCGAAUUCUGCUGUGUAUCUC the figure was 0.45; with UAACAGGGGGCCACAGCAGUAGCGUUCACGUCGCAGCUCCUGUCAGACUCUGGUGAAUCAGCGAAUUCUGCUGCAUAUCUC, 0.08; with UAACAGGGGGCCACAGCAGUGGCGUUUACGUCGCAGCCCCUGUCAGAUUCUGGUGAAUCUGCGAAUUCUGCUGUAUAUCUC, 0.1.

In the case of UAACAGGGGGCCACAGCAGUAGCGUUCACGUCGCAGCCCUUGUCAGUUUCUGGGGAAUCUGCGAAUUCUGCCGUAUAUCCC, the self-cleavage is 0.09. In the case of UAACAGGGGGCCACAGCAGUAGCGUUCACGUCGCAGCCCCUGUCAGAUUCUUGUGAAUCUGCUAAUUCUGCUGUAUAUCUC it was 0.27.

Take UAACAGGGGGCCACAGCAGUGGAGUUCAUGUCGCAGCCACUGUCAGAUUCUGGUGAAUCUGCGAAUUCUGCUGUAUAUCCC: the self-cleavage turned out to be 0.06.

Turning to UAACAGGGGGCCACAGCAGGAGCGUUCACGUCGCAGCCCCUGUCAGAUUCUGGUGAAUCCGCGGAUUCUGCUGUAUAUCUC, the self-cleavage was 0.25. With UAACAGGGGGCCACAGCAGUAGCGUUCACGUCGCAGCCCCUGUCAGUUUCUGGUGGAUCGGCGAACUCUGCUGUACAUCAC the figure was 0.08; with UAACAGGGGGCCACAGCAGUAGCGUUCACGUCGCAGCCCCUGUCUGAUUCCGGUGGAUCUGCGAAUUCCGCUGUAUAUCCC, 0. In the case of UAACAGGGGGCCACAGCAGUAGCGUUCGCGUCGCAGCCCCUGUCAGAUUCUGGUGAAUCUGCGAAAUCUGCAGAAUAUCUC it was 0.04.

With UAACAGGGGGCCACAGCAGUAGCGUUCACGUCGCAGCCCCUGUCAGAUUCUGGUGAAUCUGCGAGUUCUGCAGUAUAUCUC, the self-cleavage turned out to be 0.1. In the case of UAACAGGGGGCCACAGCAGUAGCGUUCACGUCGCGGCCCCUGUCGGAUUCUGGUGGAUCUGCGAAUUCUGCUGUAUAUCCC it was 0.7; in that of UAACAGGGGGCCACAGCAGUAGCGUUCACGUCGCAGCCCCUGUCAGAUUCUGGUGUGUCUGCGAAUUCUGCUGUAUAUCUC, 0.13; in that of UAACAGGGGGCCACAGCAGUAGCGUUCACGUCGCAGACCCUGUCAGAUUCAGGUGAAUCUGCGAAUUCUGCUGUAUAUCAC, 0.07. With UAACAGGGGGCCACAGCAGUAGCGUUCACGUCGCAGCCCCUGUCGGGUUCUGGUGAAUCUGCGAAUUCUGUUGUAUAUCUC the figure was 0.07; with UAACAGGGGGCCACAGCAGUAGCGUUCACGUCGCAGCACCUGUCAGAUUCUGGUGAGACUGCGAAUUCCGCGGUAUAUCUC, 0.05. In the case of UAACAGGGGGCCACAGCAGUAGCGUUCACGUCGCAGCCCCUGUCAGAUUCUGGUGAAUCUGCGAGCUCUGCUGUAUACCUC it was 0.12; in that of UAACAGGGGGCCACAGCAGUAGCGUUCACGUCACAGCCCCUGUCGGAUUCAGGUGAAUCCGAGAAUUCUGCUGUAUACCUC, 0.03. Take UAACAGGGGGCCACAGCAGUAGCGUUCACGUCGCAGCCCCUGUCGGAUUCUCGUGAAUCUUCGAAUUCUGCUAUUUGUCUC: the self-cleavage was 0.15. With UAACAGGGGGCCACAGCAGUAGCGAACACGUCGCAGCCCCUGUCAGAUUCUGGUGAAUCAGCGAACUCUGCUGUAUAUCUC the figure was 0.05; with UAACAGGGGGCCACAGCAGUAGCGUUCACGUCGCAGCCCCUGUCAGAUUCUGGUGGAUCUGCGAAUUCUGCUGUAUUUCUC, 0.24; with UAACAGGGGGCCACAGCAGUAGCGUUCACGUCGUAGCCCCUGUCAGAUUCUGGUGUAUCUGCGGAUUCUGCUGUAUAUCUC, 0.08. In the case of UAACAGGGGGCCACAGCAGUAGCGUUCACGUCGCAGCCCCUUCCAGAUUCUGAUGAAUCUGCGAAUUCUGCUGUAUAUCUC it was 0.25; in that of UAACAGGGGGCCACAGCAGUAGCGUUCCCGUCGCAGCCCCUGUCCGAUUCUGGUGAAUCUGCGAGUUCUGCUGUAUACCUC, 0.15; in that of UAACAGGGGGCCACAGCAGUAGCGUUCACGUCGCGGCCCCCGUCAGAUUCUGGUGAAUCUGCGAAUUCUGCUGUAUAUCUC, 0.57. In the case of UAACAGGGGGCCACAGCAGUAGCGUUCACGUCGCAGCCCCUGUCGGAUUCUGGUGAGUCUGCGAAUUCUGCUGUUUACCUC it was 0.27. Take UAACAGGGGGCCACAGCAGUAGCGUUCUCGUCGCAGCCCCUGUCAGAUUCAGGUGAAUCCGCGAAUUCUGCUGUAUAUCUC: the self-cleavage amounted to 0.18. With UAACAGGGGGCCACAGCAGUAGCAUUCACGUCGCAGCCCCCGUCAGAUUCUGGUGAGUCUGCGAAUUCUGCUGUAUAUCUC the figure was 0.07. With UAACAGGGGGCCACAGCAGUAGCGUUCACGUCGCAGCCCCUGUCUGAUUCUGGUGUAUCAGCGAACUCUGCUGUAUAUCUC the figure was 0.13; with UAACAGGGGGCCACAGCAGUAGCGUUCACGUCGCAGCCCCUGUCAGAUUCUCGUGAAUCUGCGGAUUCUGCUGAAUAUCCC, 0.39; with UAACAGGGGGCCACAGCAGGAGCGUUCACGUCGCAGCCCCUGUCAGAUUCUGGUGAAUCCGCGAGUUCUGCUGUAUAUCUC, 0.06. With UAACAGGGGGCCACAGCAGGAGCGUUCACGUCGCAGCCCCUGUCAGAUUCUGGUGAAUCUGCGAAUCCCGCUGUAUAUCUC the figure was 0.31; with UAACAGGGGGCCACAGCAGUAGCGUUCACGUCGGAGCCCCCGUCAGUUUCUGGUGGAUCAGCGAAUUCUGCUGUAUAUCUC, 0.07. As for UAACAGGGGGCCACAGCAGUAGCGUUCACGUCGCAGCCCCUGUCCGAUUAUGGUGAAUCUGCGAAUUCUGCUGUAUAACUC, the self-cleavage amounted to 0.06. As for UAACAGGGGGCCACAGCAGUAGCGUUCACGUCGCUGCCCCUGUCAGAUUCUGGUGAAUCUGCGAAGUCAGCUGUAUAUCUC, the self-cleavage is 0.09. With UAACAGGGGGCCACAGCAGUCGCGUUCACGUCGCAGCCCCAGUCAGAUUCUGGUGGAUCUGCGAAUUCUGCUGUAUAUCUC the figure was 0.32; with UAACAGGGGGCCACAGCAGUAGCGUUCACGUCGCAGCCCCUGUCAGAUUCUGGUUAAUCAGCGAAUUCUGCUGUAUUUCUC, 0.22; with UAACAGGGGGCCACAGCAGGAGCGUUCACGUCGCAGCCCCUGUCAGAUUCUGGUGAAUCUGCGAAUUCCGCUGUAUAUCCC, 0.41.

As to UAACAGGGGGCCACAGCAGUGGCGUUCACGUAGCAGCCCCUGUCAGAUUCUGGUGAAUCUGCGAAUUCUGCUGUAUAUCUC, the self-cleavage turned out to be 0.03. In the case of UAACAGGGGGCCACAGCAGUAGCGUUCACGUCGCAGCCCCUGUCCGAUUCUGGUGAAUCAGCGAAUUCUGCUGUAUAUCUC it was 0.26. Turning to UAACAGGGGGCCACAGCAGUAGCGUUCACGUCGCAGCCCCUGUCAGAUUCUGGUCAAUCUGCGGAUUCUGCUGUAUAUCUC, the self-cleavage came out at 0.22. With UAACAGGGGGCCACAGCAGUAGCGAUCACGUCGCAGCCCCUGUCAGAUUCUGAUGAAUCUGCGAAUUCUGCUGUAUAUCUC the figure was 0.09. With UAACAGGGGGCCACAGCAGUAGCGCUCACGUCGCGGCCCCUGUCAGAUUCUGGUGAAUCUGCGAAUUCUGCGGUAUAUCUC the figure was 0.2.
